# Data as given in patent CN114685674A (RUIYANG SUZHOU BIOTECHNOLOGY LTD COMPANY, dated 2022).
# B1: 46-24 PD-L1/VEGFRI抗体融合蛋白 (other)
# chain 1: EVQLVQSGAEVKKPGASVKVSCKASGYTFTKYIIHWVRQAPGQGLEWMGWFYPGSGNIRYNEKIKGRVTMTRDTSTSTVYMELSSLRSEDTAVYYCARHGELGGGYFFDYWGQGTTVTVSS[no letters for human IgG1 constant region]GGGGSGGGGSGGGGSGRPFVEMYSEIPEIIHMTEGRELVIPCRVTSPNITVTLKKFPLDTLIPDGKRIIWDSRKGFIISNATYKEIGLLTCEATVNGHLYKTNYLTHRQTNTI
# chain 2: DIQLTQSPSFLSASVGDRVTITCRASSSVSNIHWYQQKPGKAPKPWIYATSNLASGVPSRFSGSGSGTEFTLTISSLQPEDFATYYCQQWSSNPLTFGQGTKLEIKRTVAAPSVFIFPPSDEQLKSGTASVVCLLNNFYPREAKVQWKVDNALQSGNSQESVTEQDSKDSTYSLSSTLTLSKADYEKHKVYACEVTHQGLSSPVTKSFNRGEC
# B2: 23-47 PD-L1/VEGFRI抗体融合蛋白 (other)
# chain 1: EVQLVQSGAEVKKPGASVKVSCKASGYTFTKYIIHWVRQAPGQGLEWMGWFYPGSGNIRYNEKIKGRVTMTRDTSTSTVYMELSSLRSEDTAVYYCARHGELGGGYFFDYWGQGTTVTVSS[no letters for human IgG1 constant region]
# chain 2: DIQLTQSPSFLSASVGDRVTITCRASSSVSNIHWYQQKPGKAPKPWIYATSNLASGVPSRFSGSGSGTEFTLTISSLQPEDFATYYCQQWSSNPLTFGQGTKLEIKRTVAAPSVFIFPPSDEQLKSGTASVVCLLNNFYPREAKVQWKVDNALQSGNSQESVTEQDSKDSTYSLSSTLTLSKADYEKHKVYACEVTHQGLSSPVTKSFNRGECGGGGSGGGGSGGGGSGRPFVEMYSEIPEIIHMTEGRELVIPCRVTSPNITVTLKKFPLDTLIPDGKRIIWDSRKGFIISNATYKEIGLLTCEATVNGHLYKTNYLTHRQTNTI
# What was measured:
# [1] = molecular target: PD-L1 on GS-C2/PD-L1 cells (UniProt Q9NZQ7); assay: cell-based or functional assay
# PD-L1 = molecular target: T1, PD-L1 (UniProt Q9NZQ7 fragment, limits assumed); assay: SPR (Biacore 8K), sample captured on Protein A chip, PD-L1 as analyte, 25 °C
# Chain of PD-L1 (Q9NZQ7 19-238 limits assumed): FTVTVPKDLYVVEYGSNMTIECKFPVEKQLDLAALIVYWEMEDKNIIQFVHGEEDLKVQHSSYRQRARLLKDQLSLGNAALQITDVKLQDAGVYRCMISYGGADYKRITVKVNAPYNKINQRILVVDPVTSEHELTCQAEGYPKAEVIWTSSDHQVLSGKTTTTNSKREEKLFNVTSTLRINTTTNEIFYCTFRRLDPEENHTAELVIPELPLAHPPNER
# T1 construct: also called 分析物PD-L1
Binder,PD1/PD-L1结合阻断 EC50 (luciferase reporter) [1] [nM],Kd (PD-L1) [nM],koff (PD-L1) [s⁻¹],kon (PD-L1) [M⁻¹ s⁻¹]
B1,14.4,0.329,,
B2,12.2,0.365,0.000192,525000
